# This is one part of the list.
# B1: Epa23 (Candida glabrata) (protein)
# chain: MGSSHHHHHHSSGLVPRGSHMIPNPFEGTINNFPSGCSPNHGLYNRGLTMELYNYSYIHPQSIQSYFNTSTLKKMEKGQCWDPSYLDVNYPRTGYKTHNRFAKVNGIDGILDFEFNPTRSCVPSKGQLPQNYNYPLQFTLSNFTMLLYGYFKPKVTAKHTFTIFADDLLFLNFGAGNAFDCCQQQDTIDDFGNYQAYALWGSDTQQNTLTVNLDANIYYPIRMFYNNRDFKGALNMYFTTDESNTKINDFSGYLFNIPDSSEGCPAHISYETECGNVSG
# How the values were obtained:
# Assay in all cases: glycan array binding signal (z-score within array); higher = stronger binding
# Conditions in all cases: glycan notation: IUPAC condensed, linker removed
# Gal3S4S(b1-4)GlcNAc = target: Gal3S4S(b1-4)GlcNAc
# Procedure, shortened: (§1)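 Negative Z-scores can be read as non-binding. The Z-score is calculated within each array and then averaged across arrays of one protein sequence at different concentrations or buffers and across linkers. Arrays, 3228 in all, were curated from the Consortium for Functional Glycomics database and kept only where the protein sequence was available.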
# Gal3S6S(b1-4)GlcNAc = target: Gal3S6S(b1-4)GlcNAc
# Procedure, shortened: as §1
# Gal3S6S(b1-4)GlcNAc6S = target: Gal3S6S(b1-4)GlcNAc6S
# Procedure, shortened: as §1
# Gal4S(b1-4)GlcNAc = target: Gal4S(b1-4)GlcNAc
# Procedure, shortened: as §1
# Gal4S6S(b1-4)GlcNAc = target: Gal4S6S(b1-4)GlcNAc
# Procedure, shortened: as §1
# Gal6P(b1-4)GlcNAc = target: Gal6P(b1-4)GlcNAc
# Procedure, shortened: as §1
# Gal6S(b1-3)GlcNAc = target: Gal6S(b1-3)GlcNAc
# Procedure, shortened: as §1
# Gal6S(b1-3)GlcNAc6S = target: Gal6S(b1-3)GlcNAc6S
# Procedure, shortened: as §1
# Gal6S(b1-4)Glc = target: Gal6S(b1-4)Glc
# Procedure, shortened: as §1
# Gal6S(b1-4)Glc6S = target: Gal6S(b1-4)Glc6S
# Procedure, shortened: as §1
# Gal6S(b1-4)GlcNAc = target: Gal6S(b1-4)GlcNAc
# Procedure, shortened: as §1
# Gal6S(b1-4)GlcNAc6S = target: Gal6S(b1-4)GlcNAc6S
# Procedure, shortened: as §1
# GalNAc(a1-3)Gal = target: GalNAc(a1-3)Gal
# Procedure, shortened: as §1
# GalNAc(a1-3)GalNAc = target: GalNAc(a1-3)GalNAc
# Procedure, shortened: as §1
# [1] = target: GalNAc(a1-3)GalNAc(b1-3)Gal(a1-4)Gal(b1-4)Glc
# Procedure, shortened: as §1
# [2] = target: GalNAc(a1-3)GalNAc(b1-3)Gal(a1-4)Gal(b1-4)GlcNAc
# Procedure, shortened: as §1
# GalNAc(b1-3)Gal = target: GalNAc(b1-3)Gal
# Procedure, shortened: as §1
# [3] = target: GalNAc(b1-3)Gal(a1-4)Gal(b1-4)GlcNAc
# Procedure, shortened: as §1
# [4] = target: GalNAc(b1-3)Gal(a1-4)Gal(b1-4)GlcNAc(b1-3)Gal(b1-4)Glc
# Procedure, shortened: as §1
# [5] = target: GalNAc(b1-3)Gal(a1-6)Gal(b1-4)Glc
# Procedure, shortened: as §1
# GalNAc(b1-3)GalNAc = target: GalNAc(b1-3)GalNAc
# Procedure, shortened: as §1
# GalNAc(b1-3)GlcNAc = target: GalNAc(b1-3)GlcNAc
# Procedure, shortened: as §1
# GalNAc(b1-4)Gal(b1-4)Glc = target: GalNAc(b1-4)Gal(b1-4)Glc
# Procedure, shortened: as §1
# GalNAc(b1-4)GlcNAc = target: GalNAc(b1-4)GlcNAc
# Procedure, shortened: as §1
# [6] = target: GalNAc(b1-4)GlcNAc(b1-2)Man
# Procedure, shortened: as §1
# [7] = target: GalNAc(b1-4)GlcNAc(b1-2)Man(a1-3)[GalNAc(b1-4)GlcNAc(b1-2)Man(a1-6)]Man(b1-4)GlcNAc(b1-4)GlcNAc
# Procedure, shortened: as §1
# [8] = target: GalNAc(b1-4)GlcNAc(b1-3)GalNAc(b1-4)GlcNAc
# Procedure, shortened: as §1
# GalNAc(b1-4)GlcNAc6S = target: GalNAc(b1-4)GlcNAc6S
# Procedure, shortened: as §1
# GalNAc(b1-6)GalNAc = target: GalNAc(b1-6)GalNAc
# Procedure, shortened: as §1
# GalNAc3S(b1-4)GlcNAc = target: GalNAc3S(b1-4)GlcNAc
# Procedure, shortened: as §1
# GalNAc3S(b1-4)GlcNAc3S = target: GalNAc3S(b1-4)GlcNAc3S
# Procedure, shortened: as §1
# [9] = target: GalNAc3S(b1-4)[Fuc(a1-3)]GlcNAc
# Procedure, shortened: as §1
# GalNAc4S6S(b1-4)GlcNAc = target: GalNAc4S6S(b1-4)GlcNAc
# Procedure, shortened: as §1
# GalNAc6S(b1-4)GlcNAc = target: GalNAc6S(b1-4)GlcNAc
# Procedure, shortened: as §1
# Glc(a1-4)Glc = target: Glc(a1-4)Glc
# Procedure, shortened: as §1
# [10] = target: Glc(a1-4)Glc(a1-4)Glc(a1-4)Glc
# Procedure, shortened: as §1
# Glc(a1-6)Glc(a1-6)Glc = target: Glc(a1-6)Glc(a1-6)Glc
# Procedure, shortened: as §1
# [11] = target: Glc(a1-6)Glc(a1-6)Glc(a1-6)Glc
# Procedure, shortened: as §1
binder,measurement,setting,value
B1,glycan array binding signal (z-score),Gal3S4S(b1-4)GlcNAc,-0.241
same,glycan array binding signal (z-score),Gal3S6S(b1-4)GlcNAc,-0.168
same,glycan array binding signal (z-score),Gal3S6S(b1-4)GlcNAc6S,0.186
same,glycan array binding signal (z-score),Gal4S(b1-4)GlcNAc,-0.197
same,glycan array binding signal (z-score),Gal4S6S(b1-4)GlcNAc,-0.239
same,glycan array binding signal (z-score),Gal6P(b1-4)GlcNAc,0.494
same,glycan array binding signal (z-score),Gal6S(b1-3)GlcNAc,0.393
same,glycan array binding signal (z-score),Gal6S(b1-3)GlcNAc6S,2.1
same,glycan array binding signal (z-score),Gal6S(b1-4)Glc,6.7
same,glycan array binding signal (z-score),Gal6S(b1-4)Glc6S,11.8
same,glycan array binding signal (z-score),Gal6S(b1-4)GlcNAc,5.69
same,glycan array binding signal (z-score),Gal6S(b1-4)GlcNAc6S,13.5
same,glycan array binding signal (z-score),GalNAc(a1-3)Gal,-0.276
same,glycan array binding signal (z-score),GalNAc(a1-3)GalNAc,-0.278
same,glycan array binding signal (z-score),[1],-0.137
same,glycan array binding signal (z-score),[2],-0.219
same,glycan array binding signal (z-score),GalNAc(b1-3)Gal,-0.168
same,glycan array binding signal (z-score),[3],-0.231
same,glycan array binding signal (z-score),[4],-0.248
same,glycan array binding signal (z-score),[5],-0.237
same,glycan array binding signal (z-score),GalNAc(b1-3)GalNAc,-0.247
same,glycan array binding signal (z-score),GalNAc(b1-3)GlcNAc,-0.294
same,glycan array binding signal (z-score),GalNAc(b1-4)Gal(b1-4)Glc,-0.186
same,glycan array binding signal (z-score),GalNAc(b1-4)GlcNAc,-0.168
same,glycan array binding signal (z-score),[6],-0.241
same,glycan array binding signal (z-score),[7],-0.266
same,glycan array binding signal (z-score),[8],-0.241
same,glycan array binding signal (z-score),GalNAc(b1-4)GlcNAc6S,-0.236
same,glycan array binding signal (z-score),GalNAc(b1-6)GalNAc,-0.203
same,glycan array binding signal (z-score),GalNAc3S(b1-4)GlcNAc,-0.23
same,glycan array binding signal (z-score),GalNAc3S(b1-4)GlcNAc3S,-0.202
same,glycan array binding signal (z-score),[9],-0.264
same,glycan array binding signal (z-score),GalNAc4S6S(b1-4)GlcNAc,-0.142
same,glycan array binding signal (z-score),GalNAc6S(b1-4)GlcNAc,-0.222
same,glycan array binding signal (z-score),Glc(a1-4)Glc,-0.258
same,glycan array binding signal (z-score),[10],-0.233
same,glycan array binding signal (z-score),Glc(a1-6)Glc(a1-6)Glc,-0.218
same,glycan array binding signal (z-score),[11],-0.278
